Experimental data from the supplement of paper PMC11876631.
± gives the standard deviation of the averaged measurements. Laboratory Escherichia coli strains with one amino-acid change in an essential protein, pooled on minimal glucose agar with carbenicillin or gentamicin at twice the control MIC (plus kanamycin and chloramphenicol for the plasmids), 48 h. Fold change of barcode share against drug-free plates; higher = less susceptible. Active = above 20 in both replicates (the paper's putatively resistant). '<' = one read or none on drug, '>' = one read or none on a drug-free plate. Shares are relative, so most strains fall below 1 when a few take over. Listed are strains with at least 15 reads on both drug-free plates, and hits; most hits rest on fewer reference reads. Replicate rank correlation about 0.5. Edits are read from barcodes.

Biological target: Escherichia coli (laboratory strain)
Experiment: barcode share on antibiotic plates over drug-free plates; higher = less susceptible
Experimental: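 A pool of E. coli strains, each edited to carry one amino-acid change in an essential protein, was grown for 48 h on minimal glucose agar with or without antibiotic; strain barcodes were sequenced; mean of two replicates.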

[1] = antibiotic: carbenicillin, 2× MIC (3.1 µg/mL)
[2] = antibiotic: gentamicin, 2× MIC (MIC 0.45 µg/mL)

| Protein | fold change of barcode share [1] | fold change of barcode share [2] |
| --- | --- | --- |
| serC F71D (protein) MAQIFNFSSGPAMLPAEVLKQAQQELRDWNGLGTSVMEVSHRGKEFIQVAEEAEKDFRDLLNVPSNYKVLDCHGGGRGQFAAVPLNILGDKTTADYVDAGYWAASAIKEAKKYCTPNVFDAKVTVDGLRAVKPMREWQLSDNAAYMHYCPNETIDGIAIDETPDFGADVVVAADFSSTILSRPIDVSRYGVIYAGAQKNIGPAGLTIVIVREDLLGKANIACPSILDYSILNDNGSMFNTPPTFAWYLSGLVFKWLKANGGVAEMDKINQQKAELLYGVIDNSDFYRNDVAKANRSRMNVPFQLADSALDKLFLEESFAAGLHALKGHRVVGGMRASIYNAMPLEGVKALTDFMVEFERRHG | 0.391 ± 0.057 | < 0.00965 |
| serC F71P (protein) MAQIFNFSSGPAMLPAEVLKQAQQELRDWNGLGTSVMEVSHRGKEFIQVAEEAEKDFRDLLNVPSNYKVLPCHGGGRGQFAAVPLNILGDKTTADYVDAGYWAASAIKEAKKYCTPNVFDAKVTVDGLRAVKPMREWQLSDNAAYMHYCPNETIDGIAIDETPDFGADVVVAADFSSTILSRPIDVSRYGVIYAGAQKNIGPAGLTIVIVREDLLGKANIACPSILDYSILNDNGSMFNTPPTFAWYLSGLVFKWLKANGGVAEMDKINQQKAELLYGVIDNSDFYRNDVAKANRSRMNVPFQLADSALDKLFLEESFAAGLHALKGHRVVGGMRASIYNAMPLEGVKALTDFMVEFERRHG | 0.425 ± 0.13 | < 0.0067 |
| serC M354A (protein) MAQIFNFSSGPAMLPAEVLKQAQQELRDWNGLGTSVMEVSHRGKEFIQVAEEAEKDFRDLLNVPSNYKVLFCHGGGRGQFAAVPLNILGDKTTADYVDAGYWAASAIKEAKKYCTPNVFDAKVTVDGLRAVKPMREWQLSDNAAYMHYCPNETIDGIAIDETPDFGADVVVAADFSSTILSRPIDVSRYGVIYAGAQKNIGPAGLTIVIVREDLLGKANIACPSILDYSILNDNGSMFNTPPTFAWYLSGLVFKWLKANGGVAEMDKINQQKAELLYGVIDNSDFYRNDVAKANRSRMNVPFQLADSALDKLFLEESFAAGLHALKGHRVVGGMRASIYNAMPLEGVKALTDFAVEFERRHG | 0.631 ± 0.3 |  |
| serC V208Q (protein) MAQIFNFSSGPAMLPAEVLKQAQQELRDWNGLGTSVMEVSHRGKEFIQVAEEAEKDFRDLLNVPSNYKVLFCHGGGRGQFAAVPLNILGDKTTADYVDAGYWAASAIKEAKKYCTPNVFDAKVTVDGLRAVKPMREWQLSDNAAYMHYCPNETIDGIAIDETPDFGADVVVAADFSSTILSRPIDVSRYGVIYAGAQKNIGPAGLTIQIVREDLLGKANIACPSILDYSILNDNGSMFNTPPTFAWYLSGLVFKWLKANGGVAEMDKINQQKAELLYGVIDNSDFYRNDVAKANRSRMNVPFQLADSALDKLFLEESFAAGLHALKGHRVVGGMRASIYNAMPLEGVKALTDFMVEFERRHG | 0.377 ± 0.11 |  |
| suhB I51A (protein) MHPMLNIAVRAARKAGNLIAKNYETPDAVEASQKGSNDFVTNVDKAAEAVAIDTIRKSYPQHTIITEESGELEGTDQDVQWVIDPLDGTTNFIKRLPHFAVSIAVRIKGRTEVAVVYDPMRNELFTATRGQGAQLNGYRLRGSTARDLDGTILATGFPFKAKQYATTYINIVGKLFNECADFRRTGSAALDLAYVAAGRVDGFFEIGLRPWDFAAGELLVREAGGIVSDFTGGHNYMLTGNIVAGNPRVVKAMLANMRDELSDALKR | 0.229 ± 0.061 | 0.015 ± 0.015 |
| suhB I51W (protein) MHPMLNIAVRAARKAGNLIAKNYETPDAVEASQKGSNDFVTNVDKAAEAVWIDTIRKSYPQHTIITEESGELEGTDQDVQWVIDPLDGTTNFIKRLPHFAVSIAVRIKGRTEVAVVYDPMRNELFTATRGQGAQLNGYRLRGSTARDLDGTILATGFPFKAKQYATTYINIVGKLFNECADFRRTGSAALDLAYVAAGRVDGFFEIGLRPWDFAAGELLVREAGGIVSDFTGGHNYMLTGNIVAGNPRVVKAMLANMRDELSDALKR | 0.292 ± 0.086 | < 0.00344 |
| suhB I51Q (protein) MHPMLNIAVRAARKAGNLIAKNYETPDAVEASQKGSNDFVTNVDKAAEAVQIDTIRKSYPQHTIITEESGELEGTDQDVQWVIDPLDGTTNFIKRLPHFAVSIAVRIKGRTEVAVVYDPMRNELFTATRGQGAQLNGYRLRGSTARDLDGTILATGFPFKAKQYATTYINIVGKLFNECADFRRTGSAALDLAYVAAGRVDGFFEIGLRPWDFAAGELLVREAGGIVSDFTGGHNYMLTGNIVAGNPRVVKAMLANMRDELSDALKR | 0.284 ± 0.016 | < 0.00447 |
| suhB V82D (protein) MHPMLNIAVRAARKAGNLIAKNYETPDAVEASQKGSNDFVTNVDKAAEAVIIDTIRKSYPQHTIITEESGELEGTDQDVQWDIDPLDGTTNFIKRLPHFAVSIAVRIKGRTEVAVVYDPMRNELFTATRGQGAQLNGYRLRGSTARDLDGTILATGFPFKAKQYATTYINIVGKLFNECADFRRTGSAALDLAYVAAGRVDGFFEIGLRPWDFAAGELLVREAGGIVSDFTGGHNYMLTGNIVAGNPRVVKAMLANMRDELSDALKR | 0.415 ± 0.035 |  |
| suhB V82P (protein) MHPMLNIAVRAARKAGNLIAKNYETPDAVEASQKGSNDFVTNVDKAAEAVIIDTIRKSYPQHTIITEESGELEGTDQDVQWPIDPLDGTTNFIKRLPHFAVSIAVRIKGRTEVAVVYDPMRNELFTATRGQGAQLNGYRLRGSTARDLDGTILATGFPFKAKQYATTYINIVGKLFNECADFRRTGSAALDLAYVAAGRVDGFFEIGLRPWDFAAGELLVREAGGIVSDFTGGHNYMLTGNIVAGNPRVVKAMLANMRDELSDALKR | 0.122 ± 0.078 | < 0.018 |
| suhB I83A (protein) MHPMLNIAVRAARKAGNLIAKNYETPDAVEASQKGSNDFVTNVDKAAEAVIIDTIRKSYPQHTIITEESGELEGTDQDVQWVADPLDGTTNFIKRLPHFAVSIAVRIKGRTEVAVVYDPMRNELFTATRGQGAQLNGYRLRGSTARDLDGTILATGFPFKAKQYATTYINIVGKLFNECADFRRTGSAALDLAYVAAGRVDGFFEIGLRPWDFAAGELLVREAGGIVSDFTGGHNYMLTGNIVAGNPRVVKAMLANMRDELSDALKR | 0.129 ± 0.008 | < 0.0213 |
| suhB I83Q (protein) MHPMLNIAVRAARKAGNLIAKNYETPDAVEASQKGSNDFVTNVDKAAEAVIIDTIRKSYPQHTIITEESGELEGTDQDVQWVQDPLDGTTNFIKRLPHFAVSIAVRIKGRTEVAVVYDPMRNELFTATRGQGAQLNGYRLRGSTARDLDGTILATGFPFKAKQYATTYINIVGKLFNECADFRRTGSAALDLAYVAAGRVDGFFEIGLRPWDFAAGELLVREAGGIVSDFTGGHNYMLTGNIVAGNPRVVKAMLANMRDELSDALKR | 0.287 ± 0.058 | < 0.0104 |
| suhB I83D (protein) MHPMLNIAVRAARKAGNLIAKNYETPDAVEASQKGSNDFVTNVDKAAEAVIIDTIRKSYPQHTIITEESGELEGTDQDVQWVDDPLDGTTNFIKRLPHFAVSIAVRIKGRTEVAVVYDPMRNELFTATRGQGAQLNGYRLRGSTARDLDGTILATGFPFKAKQYATTYINIVGKLFNECADFRRTGSAALDLAYVAAGRVDGFFEIGLRPWDFAAGELLVREAGGIVSDFTGGHNYMLTGNIVAGNPRVVKAMLANMRDELSDALKR | 0.161 ± 0.068 | < 0.0178 |
| suhB I83P (protein) MHPMLNIAVRAARKAGNLIAKNYETPDAVEASQKGSNDFVTNVDKAAEAVIIDTIRKSYPQHTIITEESGELEGTDQDVQWVPDPLDGTTNFIKRLPHFAVSIAVRIKGRTEVAVVYDPMRNELFTATRGQGAQLNGYRLRGSTARDLDGTILATGFPFKAKQYATTYINIVGKLFNECADFRRTGSAALDLAYVAAGRVDGFFEIGLRPWDFAAGELLVREAGGIVSDFTGGHNYMLTGNIVAGNPRVVKAMLANMRDELSDALKR | 0.289 ± 0.1 | < 0.0154 |
| suhB V116A (protein) MHPMLNIAVRAARKAGNLIAKNYETPDAVEASQKGSNDFVTNVDKAAEAVIIDTIRKSYPQHTIITEESGELEGTDQDVQWVIDPLDGTTNFIKRLPHFAVSIAVRIKGRTEVAVAYDPMRNELFTATRGQGAQLNGYRLRGSTARDLDGTILATGFPFKAKQYATTYINIVGKLFNECADFRRTGSAALDLAYVAAGRVDGFFEIGLRPWDFAAGELLVREAGGIVSDFTGGHNYMLTGNIVAGNPRVVKAMLANMRDELSDALKR | 0.245 ± 0.0012 | < 0.00338 |
| suhB V116Q (protein) MHPMLNIAVRAARKAGNLIAKNYETPDAVEASQKGSNDFVTNVDKAAEAVIIDTIRKSYPQHTIITEESGELEGTDQDVQWVIDPLDGTTNFIKRLPHFAVSIAVRIKGRTEVAVQYDPMRNELFTATRGQGAQLNGYRLRGSTARDLDGTILATGFPFKAKQYATTYINIVGKLFNECADFRRTGSAALDLAYVAAGRVDGFFEIGLRPWDFAAGELLVREAGGIVSDFTGGHNYMLTGNIVAGNPRVVKAMLANMRDELSDALKR | 0.277 ± 0.068 | 0.023 ± 0.02 |
